# ± gives the standard deviation of the averaged measurements. This is one part of the list.
# System: PfAP2-LT AP2 domain (GST-tagged)
# Experiment: gcPBM binding intensity (ln(normalized median fluorescence intensity)); higher = stronger DNA binding
# Procedure, shortened: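 GST-tagged P. falciparum DNA-binding domains produced in E. coli were incubated for 1 h on an Agilent 4 × 180k array of primer-extended double-stranded 36-bp intergenic genomic probes with negative controls. Binding intensity is the highest Masliner-normalised natural-log median intensity across replicate spots of either probe orientation, with bound protein detected by Alexa488 anti-GST antibody at 488 nm.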
row,Sequence,gcPBM binding intensity (ln)
1,TTAAATATAAAAAGTAGTACATTTATATTTACCATA [XGTACX_site2962],8.46 ± 0.36
2,TCAAATTATATGAGTGGTACACATGTAATATTTTTA [XGTACX_site6518],8.71 ± 0.44
3,AAAAAACGACCTTACGCACACATTATTCTAGTCTAT [CACACA_site2349],9.24 ± 0.45
4,AAAAAAATATATATTACACACATATATACATATATA [CACACA_site3125],8.88 ± 0.4
5,ATATATATATATATATGTACTTATTAAGATTAAAAA [XGTACX_site61],9.2 ± 0.11
6,TTACATTTTTTATGTTTTTTTATATTGCAAAAAAAT [CACACA_negctrl_site1050],8.4 ± 0.42
7,ATATTTTGTATAATCACACACACTATTATTAAATAG [CACACA_site2612],9.13 ± 0.28
8,TACATAAAAATATCACGTACATATAATCATATACTA [XGTACX_site3505],8.66 ± 0.37
9,ATATTTCATCTAGCTACACACATATAACAAATTACT [CACACA_site7843],9.09 ± 0.4
10,TTCTTTTTCCAATTTGCACACCACAAAATTATATAT [CACACA_site2909],9.01 ± 0.49
11,ACCTTTGATATATACACACACATAAAAAAAATATAT [CACACA_site6952],9.37 ± 0.31
12,AAAAAAAAAAAAAAAACACACATACACCCCCACCCA [CACACA_site9117],9.89 ± 0.18
13,ATTAATAATATTCCTTGTACATGATTTTTCTAAATA [XGTACX_site7099],8.59 ± 0.41
14,TATAAATATAAATACACACACACATCAATACAGATA [CACACA_site5850],9.86 ± 0.014
15,TGCACAGACGGACACACACACAACTAAAAAATAATG [CACACA_site5424],9.69 ± 0.61
16,TGTGTTAATAGAAAAAGTACATATACATATATATAT [XGTACX_site4951],8.75 ± 0.44
17,TCTTTTGAACAAATTTGTACGTATATAAAAATATTT [XGTACX_site6547],8.43 ± 0.45
18,AATGAATTAATAGCTACACACGGTAACATAATAACT [CACACA_site851],9.07 ± 0.4
19,TATAATAATGCCTTTACATGCAATAATAAAGAAATA [TGCATGCA_site631],8.62 ± 0.36

row,Sequence,gcPBM binding intensity (ln)
1,CGCATACACCAACACACACACACATATATATATATA [CACACA_site635],9.96 ± 0.48
2,TATAAATACTTATATGTACACACATATAGATATATA [CACACA_site8819],8.82 ± 0.33
3,TAGATCTTATTTACAAGTACATATATACGATTCATT [XGTACX_site7578],8.72 ± 0.48
4,AGAAGTCTGTAATGATGTACTGGAAAAATATAAATA [XGTACX_site8148],8.64 ± 0.48
5,ATCTAATATATATTCTGTACGTAATTAAAACCACAA [XGTACX_site3152],8.65 ± 0.31
6,ATGTTGTCAAAAAAATGTACTTACATAATATTTTCC [XGTACX_site1732],8.55 ± 0.42
7,ATATATATATATATTTGTACATATATATAATTTTTC [XGTACX_site7460],9.08 ± 0.52
8,TATAATTGTCTTCACACACACATATATATATATATA [CACACA_site2743],9.685 ± 0.064
9,AAAATAAAAAAAAAAGGTACACAAAAAGATGGACTG [XGTACX_site2650],8.91 ± 0.57
10,TTTTTTTTTTAAAAAACACACACCTAAACAAGATAT [CACACA_site875],8.8 ± 0.24
11,TTAATTGACATAAAAAGTACTCATATAGATATGCAC [XGTACX_site6391],8.62 ± 0.43
12,AAATGTTAATAAAGGTGTACACAAAATAAAAAAAAT [XGTACX_site463],9.34 ± 0.58
13,AAAAAGAACAGAAACACACAAATAAAATAAAATTGT [CACACA_site6921],9.21 ± 0.46
14,TAATTTTATTTTATATGTACGCAATACAAATATATA [XGTACX_site8461],8.44 ± 0.36
15,ATAAAAATAAAAAGTGTGCACACAAAAATATATATA [GTGCAC_site9931],9.62 ± 0.36
16,AATATATATATTTAAGTGCATAATATTGTAATATTA,8.72 ± 0.44
17,TTACCAAAAAAATGTAGTACAATATAATATTATTTA [XGTACX_site5750],8.52 ± 0.38
18,ATATATTATGAAGACTGTACATTTACATGAAAAAAA [XGTACX_site7203],8.68 ± 0.52
19,CACCCCCACAGACACACACACACACCCATATATATA [CACACA_site364],10.45 ± 0.042

row,Sequence,gcPBM binding intensity (ln)
1,AAGATTCATTGGTTCTGTACAAAATAAACACTATAA [XGTACX_site834],8.69 ± 0.49
2,ATATATAATTAATTTTGTACACATAAAAAAAAAAAT [XGTACX_site6647],8.69 ± 0.43
3,AGAGAGAAAGCTATAACATGCAACAATTTTTTGAAA [TGCATGCA_site514],8.79 ± 0.5
4,ATATCTTATAATACGGTGCACTTGACATGAACAACT [GTGCAC_site9987],8.95 ± 0.33
5,ATATTTGCATGTGGTAGTACATAACATTCTTTTACA [XGTACX_site8194],8.85 ± 0.32
6,ACATATTATATATGTGTGCACATATATATATATTTA [GTGCAC_site9591],9.7 ± 0.33
7,CTTCAATTAAAATTCACACATATAAATTAAAATATT [CACACA_site6129],8.46 ± 0.45
8,TTTATTTAAAAAGTTTGTACATATATATTATTTTGA [XGTACX_site6040],8.54 ± 0.41
9,AAAAAATATTAGACTTATAAAGCATAAAGGATATTA [GTGCAC_negctrl_site588],8.52 ± 0.52
10,AATTTATTATTTTATTGTACGTATTTTTTTTTTTAT [XGTACX_site2298],8.89 ± 0.49
11,ATATTATAGTTATGAACATGCAAACATTACGAAATA [TGCATGCA_site54],8.76 ± 0.5
12,CATATATAAATATATACACACATACATACATACATA [CACACA_site5988],9.36 ± 0.4
13,TTTATATATATAATATGTACACATAATAATAATACA [XGTACX_site4862],8.61 ± 0.4
14,AAATGACATTTCAAAAGTACATATTTAATTAATTAA [XGTACX_site2919],8.51 ± 0.56
15,TCATATATTTTAATATGTACACATTTTTTTGGTATA [XGTACX_site8695],8.7 ± 0.5
16,TTTTTCTTTATTAGCACACATAATATTATATATGTG [CACACA_site2629],8.89 ± 0.42
17,TACAGACTAAAATACACACACACACGCACATATATA [CACACA_site7875],10.2 ± 0.18
18,TACATTTATATATATACACACACACTAATAAAAAAA [CACACA_site8845],9.54 ± 0.28
19,ATATGTATATATAAGGTGCAGAAAGGTGGGCAAAAG,9.21 ± 0.5

# From the supplement of paper PMC11417369
